Measured values published in the BET-seq Pho4 binding data (Le et al. 2018).
Some of the results follow. Values were computed here from the reads of four pooled replicates and scatter widely.

Biological target: T1, Pho4 (S. cerevisiae) (UniProt P07270)
T1 sequence: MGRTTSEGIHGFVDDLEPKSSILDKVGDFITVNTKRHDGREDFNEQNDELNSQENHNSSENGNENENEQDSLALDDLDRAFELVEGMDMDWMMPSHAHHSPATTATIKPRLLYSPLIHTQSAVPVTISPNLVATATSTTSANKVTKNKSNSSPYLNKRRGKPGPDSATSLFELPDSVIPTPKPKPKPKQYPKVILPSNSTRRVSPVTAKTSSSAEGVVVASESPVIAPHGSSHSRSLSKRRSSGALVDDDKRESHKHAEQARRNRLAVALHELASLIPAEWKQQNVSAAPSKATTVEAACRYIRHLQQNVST
Assay: relative binding free energy (BET-seq); higher = weaker binding
Conditions: reference: library average

| Sequence | relative binding free energy [kcal/mol] |
| --- | --- |
| TGGGTCACGTGGTGTG | 0.12 |
| TAGGCCACGTGTTTAG | -0.11 |
| GTGCGCACGTGTTTGA | -0.22 |
| GTGGACACGTGTTTCG | 0 |
| ACGGGCACGTGGTGGT | -0.09 |
| GGTGACACGTGAGCTG | 0.3 |
| CGTGACACGTGTGCTG | 0.07 |
| GTGGCCACGTGGGCGT | -0.24 |
| GTTATCACGTGTGTTG | 0.15 |
| AGTGACACGTGGGAAT | -0.03 |
| CGGTACACGTGGTGCG | -0.02 |
| TAGGTCACGTGGAGTA | 0.14 |
| TACTTCACGTGTGGAT | 0.24 |
| TCAGTCACGTGGGTGC | -0.11 |
| CGGTTCACGTGCGAGG | 0.42 |
| TAAGTCACGTGTGTCT | 0 |
| GTCTTCACGTGTTAAT | 0.3 |
| GGTGTCACGTGACTTG | 0.18 |
| GTTATCACGTGGTTGA | 0.15 |
| ATGCGCACGTGTCTTT | 0 |
| AGGTGCACGTGGTTGA | -0.17 |
| TATTGCACGTGGCGAG | -0.07 |
| AAGTCCACGTGGGTTT | 0.02 |

| Sequence | relative binding free energy [kcal/mol] |
| --- | --- |
| AAGGGCACGTGAGTAG | 0.08 |
| GGAGGCACGTGACGAG | -0.01 |
| AAGAACACGTGGGAGG | -0.06 |
| TTAGTCACGTGGAGAT | 0.06 |
| TAGGGCACGTGTGAGG | -0.04 |
| GCTTGCACGTGGGTTG | -0.09 |
| TCGGGCACGTGACGAG | 0.09 |
| GTGGACACGTGTATGC | 0.05 |
| CGGATCACGTGGTTAG | 0.12 |
| AAATACACGTGGGGGA | -0.08 |
| ATGCTCACGTGGGTTA | -0.03 |
| TTTGTCACGTGTGGCT | 0.18 |
| TGTCTCACGTGTTAAT | 0.32 |
| TGGTTCACGTGTACCG | 0.3 |
| TACTCCACGTGGGGTT | 0.01 |
| TTTTGCACGTGCGTGA | -0.03 |
| GTGTACACGTGGAACG | 0.11 |
| ATTATCACGTGTAGGA | 0.22 |
| AAGAGCACGTGAGTTA | 0.2 |
| TGCGTCACGTGTGGAT | 0.14 |
| AATAGCACGTGGTTGA | -0.13 |
| ATTATCACGTGAGTGG | 0.23 |
| TGCGTCACGTGGTCAT | 0.08 |

| Sequence | relative binding free energy [kcal/mol] |
| --- | --- |
| GTTAACACGTGGGCGT | -0.05 |
| TTAATCACGTGATTCG | 0.27 |
| ATGTTCACGTGAGCAT | 0.35 |
| TGTGACACGTGGTTAA | -0.06 |
| CATGGCACGTGTTGTA | -0.04 |
| TGTATCACGTGATAGA | 0.14 |
| TATGTCACGTGTATTA | -0.02 |
| GGATTCACGTGGCGTT | 0.37 |
| TGTAACACGTGATTTA | 0.26 |
| TAGGACACGTGTGTTT | 0.21 |
| CTGCACACGTGGGGGT | -0.21 |
| CGGGTCACGTGGATGT | 0.05 |
| AAAGTCACGTGTTGTT | 0.02 |
| TGCAACACGTGAAGGT | 0.31 |
| GCTTGCACGTGTGGTA | -0.03 |
| TTGCGCACGTGGTTTC | -0.17 |
| CTGCACACGTGTGTTT | 0.1 |
| CTGAGCACGTGGGGTC | -0.26 |
| TGGACCACGTGAAGGT | 0.32 |
| GAATTCACGTGAGTCT | 0.52 |
| AATATCACGTGAGAGT | 0.34 |
| ACGCGCACGTGGTGTG | -0.24 |
| AAGGTCACGTGGAATT | 0.21 |

| Sequence | relative binding free energy [kcal/mol] |
| --- | --- |
| GAATGCACGTGCGAGG | -0.01 |
| AGTAGCACGTGGGAAT | -0.06 |
| TTGTCCACGTGTGCGG | 0.01 |
| AGGGCCACGTGGGTAA | -0.22 |
| TGAGTCACGTGGTTGC | -0.01 |
| AGGTCCACGTGTATGG | -0.05 |
| TGTGGCACGTGTAGGC | -0.06 |
| TTTTTCACGTGCTAAT | 0.23 |
| AGGTTCACGTGCGTAT | 0.23 |
| GTTTGCACGTGCTTAG | -0.11 |
| GAGGGCACGTGTGGGA | 0.03 |
| TAAAGCACGTGAAGGT | 0.16 |
| CGTTGCACGTGTCTGG | -0.02 |
| AGAGCCACGTGTGAGG | -0.04 |
| AGAACCACGTGGTTGG | 0.01 |
| ATGGTCACGTGAGTAA | 0.23 |
| TGGGTCACGTGTCTTC | 0.2 |
| TTGGTCACGTGTCGAT | 0.29 |
| TTTAACACGTGTAATT | 0.08 |
| TGTATCACGTGTTTAT | 0.25 |
| CTGGTCACGTGTTGCA | 0.1 |
| GGTGGCACGTGTAGAA | 0.06 |
| AAAGTCACGTGGATGT | 0.04 |

| Sequence | relative binding free energy [kcal/mol] |
| --- | --- |
| AGGTGCACGTGTTTTA | 0.06 |
| CGGATCACGTGGGTAG | -0.06 |
| CAGAGCACGTGGGGGA | -0.26 |
| AACATCACGTGGAGGG | 0.18 |
| ATGGTCACGTGGTACG | 0 |
| GATGACACGTGAATGG | 0.24 |
| GGTCCCACGTGGGTGG | -0.22 |
| AGTATCACGTGTATAA | 0.11 |
| AGGGTCACGTGTTTTA | 0.17 |
| GTATACACGTGGAGAG | 0.09 |
| GAATTCACGTGATGAG | 0.43 |
| TAAAGCACGTGGGTTG | -0.22 |
| GGACGCACGTGAGGGG | 0.09 |
| GTTTCCACGTGGTTTC | 0.23 |
| ATCGGCACGTGAGTAT | 0.13 |
| TTTAACACGTGCGGTA | -0.04 |
| GTGAACACGTGGTGCT | -0.02 |
| GGATCCACGTGGGGAG | -0.04 |
| GGGGCCACGTGGTTAT | 0.04 |
| CTTGTCACGTGGAGAG | 0.05 |
| TGGTCCACGTGATGTG | 0.17 |
| ATATGCACGTGGGATA | -0.14 |
| GGACTCACGTGGGAGG | 0.08 |
